# In all, about 33,000 sequences were measured (“E-score (-0.5 to 0.5)”: median about -0.012, highest 2% from about 0.29 on). This is one part of the list.
# Target: T1, Ybr033w (UniProt P38073)
# T1 sequence: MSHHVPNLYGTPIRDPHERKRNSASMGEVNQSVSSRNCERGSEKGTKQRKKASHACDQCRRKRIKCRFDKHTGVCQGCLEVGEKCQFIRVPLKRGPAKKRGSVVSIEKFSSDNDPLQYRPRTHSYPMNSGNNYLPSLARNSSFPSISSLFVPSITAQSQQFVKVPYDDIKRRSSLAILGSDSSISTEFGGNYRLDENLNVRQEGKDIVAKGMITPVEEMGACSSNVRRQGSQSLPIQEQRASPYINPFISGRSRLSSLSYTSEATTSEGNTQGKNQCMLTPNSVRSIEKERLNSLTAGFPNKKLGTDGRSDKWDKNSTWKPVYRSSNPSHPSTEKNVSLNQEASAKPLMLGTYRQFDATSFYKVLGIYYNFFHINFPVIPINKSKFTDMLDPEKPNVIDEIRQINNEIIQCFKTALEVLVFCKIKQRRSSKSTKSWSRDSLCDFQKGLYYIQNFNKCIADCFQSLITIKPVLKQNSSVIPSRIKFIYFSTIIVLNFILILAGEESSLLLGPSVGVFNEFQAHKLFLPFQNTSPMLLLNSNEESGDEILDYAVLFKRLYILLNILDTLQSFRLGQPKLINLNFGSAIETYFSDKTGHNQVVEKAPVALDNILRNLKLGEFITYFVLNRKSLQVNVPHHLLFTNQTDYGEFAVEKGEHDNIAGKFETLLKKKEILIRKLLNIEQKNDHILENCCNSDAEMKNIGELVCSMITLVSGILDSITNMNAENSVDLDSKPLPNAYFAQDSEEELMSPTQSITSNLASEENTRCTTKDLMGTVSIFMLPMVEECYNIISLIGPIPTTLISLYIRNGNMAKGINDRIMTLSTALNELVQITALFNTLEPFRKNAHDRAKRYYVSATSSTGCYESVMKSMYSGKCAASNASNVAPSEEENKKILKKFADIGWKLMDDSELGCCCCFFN
# Test: PBM E-score (8-mer binding enrichment) (E-score (-0.5 to 0.5)); higher = stronger / more preferred TF binding; most listed sequences are background and not binding sites
# Conditions: protein concentration: 200 nM; construct: GST-full length
# Summary of the method: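 GST-tagged yeast TFs (full-length or DNA-binding domain) were made by PURExpress in vitro transcription/translation and applied at about 100-200 nM to universal all-10-mer Agilent arrays. The arrays were made double-stranded by primer extension, on fresh or once-stripped slides. Bound protein was detected with fluorescent anti-GST, and scans were normalised with masliner. Each ungapped eight-base word, pooled with its reverse complement, received an E-score (modified Wilcoxon-Mann-Whitney statistic) from the Universal PBM Analysis Suite.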
row,Sequence,PBM E-score
1,GACAGGAC,0.022
2,ACTCATCG,-0.0961
3,GGCCAGGA,-0.14
4,CGTGTCCC,-0.313
5,CATAAATG,-0.0505
6,AACTTACA,0.13
7,GCTAACGA,-0.00288
8,ACACCCAT,0.0255
9,CATCTTTC,0.108
10,GTAGCCTA,-0.188
11,CGACATTA,0.229
12,CGTAAAAC,-0.0532
13,GCATTGAA,0.0889
14,GTAGCGAC,-0.0936
15,AGGTAGTC,-0.165
16,GGCCTAGA,-0.105
17,AGCCAGAC,-0.0118
18,ACTCTGAC,-0.212
19,GGTCCATA,-0.121
20,ATCCTGGA,0.0928
21,ATGATTTC,0.162
22,GTGAAACA,0.0868
23,CCCCCAGG,-0.273
24,AGAGACAA,-0.0571
25,TGAGCTAA,0.0551

row,Sequence,PBM E-score
1,CAAACTCC,0.22
2,GATAGGCA,0.03
3,GGAGCTAA,-0.0436
4,AACATGGT,0.0162
5,TATGAAAA,0.225
6,GAACTGGA,0.142
7,ATGGTCAG,0.161
8,CGCGTGAA,-0.0731
9,AGGATTAA,0.361
10,GGACGCCA,-0.319
11,CATAGGGG,-0.211
12,GCCGACCA,-0.254
13,AGACTACT,0.171
14,ACAAATGA,0.0836
15,AGGTAAGG,-0.119
16,CGAGCCGC,0.105
17,ATCCTAAC,0.142
18,CTTAGCGA,0.0522
19,GCGTTGCC,-0.188
20,AGCGCCTG,-0.135
21,ACTTACAC,-0.0235
22,GACCATTA,0.2
23,AATGAGTC,-0.0703
24,CAATGTCG,0.0113
25,AACAAGCG,0.178

row,Sequence,PBM E-score
1,CCTTACAC,-0.00654
2,TACACAGA,0.116
3,TACCGAAA,0.0108
4,AAGAAGCT,0.0712
5,ATGCTTAG,0.131
6,AGAGCTGA,0.0192
7,AGAGATTG,0.125
8,AGTCGGCA,-0.0305
9,GCGCAGCC,-0.249
10,AGGCGGAG,-0.0377
11,AAGCTCGG,0.0182
12,CAATATTA,0.27
13,CTCCTAAA,-0.0494
14,TAGGAAAA,0.229
15,ACCGCTTA,-0.0969
16,GACTTGAC,-0.108
17,CCCTGTCC,-0.267
18,AATGAAGC,-0.0361
19,CCGTCTTA,-0.166
20,CGAATGTA,-0.0524
21,AATCGCTG,-0.0821
22,ATGTAATC,0.112
23,AATCCCCC,-0.366
24,GCGGCAAA,-0.0322
25,CTGCAAAC,0.0506

row,Sequence,PBM E-score
1,CGCCATTA,-0.0782
2,CAGCAAGA,0.0995
3,TCTACAAA,0.0828
4,ACTTGAGA,0.158
5,AATGTAGT,0.189
6,AATCTTAT,0.216
7,AACATGTA,0.269
8,ATCAATTA,0.365
9,AGCAATAC,0.0784
10,ACTTTCCG,0.0609
11,AGGTGGCG,-0.157
12,ACCTTGGG,-0.04
13,TGTGTGAA,0.0316
14,GAGCCGGC,-0.0356
15,TCATGAAA,0.00693
16,AGTTTATG,0.2
17,ATGTGTCG,-0.0937
18,CAGTTCGG,-0.0492
19,CTAAGATA,0.0878
20,CACCTCTC,-0.283
21,CGTGAGCC,-0.176
22,GTTTTCGA,0.025
23,GGGGTGGA,-0.234
24,AACGAAAG,0.113
25,CACAAATC,0.113

row,Sequence,PBM E-score
1,CATTGGTC,-0.109
2,AAAGTTCC,0.132
3,AAGTCCCA,-0.154
4,AATATTCA,0.226
5,CAACAGTA,0.0739
6,CTGAGTGA,0.131
7,AGTAGATC,0.164
8,GGGGCTCA,-0.219
9,ACCGACAA,0.0577
10,AAAAAGCG,0.112
11,GCTGTCGA,-0.0632
12,AAAGAAAT,0.25
13,CCCTATCC,-0.24
14,CACTTACA,0.0826
15,CACTGCTG,-0.111
16,CATTTGAG,-0.015
17,ATTCCCCG,-0.0486
18,AATTTCAT,0.224
19,CGGGACCA,-0.215
20,CTCGGGTA,-0.109
21,ACAGGTCA,-0.0986
22,AAGACCTA,-0.122
23,ACAGCGCC,-0.159
24,AATACGGG,-0.102
25,CGCCCGTC,-0.0011

row,Sequence,PBM E-score
1,GTCGGAAA,0.282
2,GTGTACTA,0.181
3,GTAAGGTA,0.127
4,ATTCTACG,-0.0146
5,GCGCCGCC,-0.276
6,ATGCCCTG,-0.0604
7,CAAGCTTG,-0.0645
8,CAGTTCTC,-0.0601
9,GATGCGTA,-0.0578
10,AGAGGAAT,-0.012
11,ACATAATC,0.205
12,CTATCTCA,0.11
13,AGACTTTC,-0.05
14,AAACCCCC,-0.409
15,ATGAGCCG,-0.166
16,GAGTTCCC,-0.201
17,AGAGTATA,0.0377
18,ACCTTCTG,0.194
19,CATATTCG,0.103
20,GCGTATAA,0.0124
21,GTAGACAA,0.08
22,ACATCAAG,0.165
23,CTGATCCA,0.0678
24,ATCTATAG,0.125
25,GAGTGCTA,0.0646

row,Sequence,PBM E-score
1,AACTCCGG,0.109
2,CGCGCTCC,-0.19
3,AGTTTGTC,0.0278
4,AAATCAAA,0.233
5,TGAACCAA,0.273
6,ACGGTATG,-0.0502
7,AGTTACCG,0.0592
8,ATCGCTAC,0.0525
9,AACAAGCC,-0.0425
10,AAAGAGCG,0.0348
11,GCCCCACA,-0.333
12,GCGGGTCC,-0.323
13,CGTCCTTA,-0.116
14,GCTATTCC,-0.0267
15,AATATAGG,0.262
16,CGTGGGAC,-0.188
17,CTGGCTCA,-0.0348
18,TCGAACAA,0.138
19,GAAGGAGC,-0.296
20,ACATCTGG,0.0399
21,CCAGGGCG,-0.297
22,ATGCCTTG,0.0358

# From the supplement of paper PMC3334620
